Sequences and labels used below:
B1: LINE1-mini (parent)
chain: GGCAGAGCUCAACACAGCGUGGCAAAGUGGCUGUGGCUAGACUGCC

Read counts are not given, so values of variants with three or more changes are uncertain.

In this data set the parent is B1. Put plainly: self-cleavage, relative activity (ratio to wild type); higher = more cleavage; in vitro, sequencing; the parent is a self-cleaving ribozyme.
Turning to G19A C45U C46G, the self-cleavage is 0.81.
Take C18U G22C G35U G36C: the self-cleavage was determined as 0.04.
Under C18U G27U U32C stands 0.05; under C18G U20C G44C, 0.03.
Take C18U C31G U32G: the self-cleavage was 0.02.
C18U G30C U32C: the self-cleavage is 0.48.
Turning to C18G A24G G27U C31A, the self-cleavage was found to be 0.08.
With C18U G22U U32G C46U the figure was 0.33; with G19A G22A G29C G36A, 0.01.
Under C18U G21U G36U stands 0.03.
Turning to C18U U20C C31G, the self-cleavage was found to be 0.07.
For the variant G19A G30A C45A, the self-cleavage was found to be 0.47.
For C18G G40C G44U, the self-cleavage stood at 0.05.
With G19A G21U G22C G36U U38G the figure was 0.03; with C18U G21U A24G U34A C37G, 0; with C18U U28A G29U, 0.29.
Consider C18U G29A U38G, for which the self-cleavage came out at 0.02.
For the variant C18U G22A U34A, the self-cleavage came out at 0.02.
Consider C18U A25U C31G C42A, for which the self-cleavage was 0.05.
On to C18U G40A C45G, for which the self-cleavage was 0.06.
As for C18U G22A G35C A39G, the self-cleavage was 0.01.
Under G19A G29C G30U stands 0.96; under C18G U43A C46G, 0.01.
C18G G22C C42G: the self-cleavage was 0.06.
Under G19A G27A G29C C45A stands 0.75; under G19A A24U U43A, 1.75.
With C18U U32A G33C the figure was 0.04; with C18U G35U A39U, 0.02; with G19A A24G G27U, 1.19.
With G19A A25G U28C the figure was 1.1.
As to C18G A26U C31A, the self-cleavage was determined as 0.05.
Regarding G19A A25C A26C C42A, the self-cleavage amounted to 0.44.
C18G C23U A26U: the self-cleavage amounted to 1.29.
As for C18U G27A G35U, the self-cleavage turned out to be 0.04.
Under C18U A25U G44C stands 0.25; under C18G U20A G29U C37G, 0.01.
With G19A G21A A25G G27A G30A C31U C46A the figure was 0.88; with C18G U20G A25U G33C G35U, 0.01.
Take C18G U28G U34A: the self-cleavage came out at 0.03.
With G19A G22C A39C the figure was 0.09.
As to G19A G29C C31G, the self-cleavage was found to be 0.55.
Under C18U U20A C23G G36U G44C stands 0.02; under C18G G21U G22C, 0.93.
Under C18G C37G A41U stands 0.04; under G19A C23U A24C G44U, 0.03.
Under C18U A25U G29U stands 0.35; under C18U C37A A39U, 0.11.
C18G C23U G36C: the self-cleavage amounted to 0.01.
As to C18U G27U C42U, the self-cleavage worked out at 0.16.
Under C18G G33U G36U stands 0.1; under C18U G19A U20C A26C U32G U34G, 0.03.
For C18U U34A G36U G40C, the self-cleavage came out at 0.02.
Under C18U U28C A41U stands 0.26; under C18U G22A C46U, 0.28; under G19A G22A A39U, 1.2.
Under C18U U20G G30U G33A G44A stands 0; under C18A U34C C42G, 0.05.
On to C18U G35A C46G, for which the self-cleavage came out at 0.02.
For the variant C18U C23G G29U U38C, the self-cleavage was found to be 0.38.
Consider C18U U20C C31A C45A, for which the self-cleavage was determined as 0.03.
With C18U G29A G35U the figure was 0.05.
Under C18G G30C C31G stands 0.03; under C18G G35C A39C, 0.05.
For the variant G19A G33C U34C C42U, the self-cleavage is 0.09.
Regarding C18G C37U A39U, the self-cleavage was 0.22.
Turning to G19A G33A A39G, the self-cleavage came out at 0.07.
With C18G C37U C46A the figure was 0.02; with C18U G19A U38G G40C, 0.02; with G19A A25U U28A, 0.36.
With C18G U43C G44U the figure was 0; with G19A C37G A41C, 0.01.
Take C18U C23A A25U G36C: the self-cleavage was determined as 0.03.
Under G19A G21C C23A A25C U43A stands 0.04; under C18U C23U C42U C45A, 0.06; under G19A G27U G44A C46G, 0.07.
For G19A G22C C23A, the self-cleavage was 0.25.
With C18G U20C A24U A41U the figure was 0.07; with C18U G19C G22C, 0.32; with G19A C37U A39U, 0.06.
With C18U U20A G22A U43A the figure was 0.06.
Under G19A C37A U38G A39U stands 0.04; under C18U G19U G21C A25G A26C G29U, 0.6.
Turning to C18U C23U U34A U43C, the self-cleavage was determined as 0.05.
With C18U A25U U28A the figure was 0.01; with C18U U20A G29U U32C, 0.05; with G19A G21U C46U, 0.34.
Under C18G G22U G27C G44A stands 0.23; under C18U G21C C46A, 2.17.
Under C18U G30U U43G C46A stands 0.02.
As for C18G G21C G27C U34A, the self-cleavage amounted to 0.02.
With C18U G21U G22A C23G the figure was 0.24.
For C18G A25C G33A C46G, the self-cleavage was 0.02.
Regarding G19A C31U C42U, the self-cleavage stood at 0.12.
On to C18A U38A A41U, for which the self-cleavage turned out to be 0.09.
With C18G C37G G40A the figure was 0.09; with C18G C31G U34C, 0.02.
Take C18G C31U G40A: the self-cleavage is 0.01.
Take C18U G29U A39U C42U: the self-cleavage turned out to be 0.63.
As for G19A G29U C46A, the self-cleavage worked out at 0.59.
As for C18U G21A G36U A41G, the self-cleavage worked out at 0.13.
On to C18A U32C G33U C42A, for which the self-cleavage came to 0.09.
In the case of C18U G21A A41C C42U C45A C46U, the self-cleavage was found to be 0.07.
Under G19A G21A U34C A41U stands 0.62; under G19A A25U A26C C46U, 1.43; under C18U G19U G21A U38A, 1.21.
As for C18U G40U C45A, the self-cleavage was determined as 0.03.
Under G19A A41G C45U stands 0.36; under G19A A24G A26C, 0.29; under C18U A26U G27U G36A, 0.18.
On to C18G G21U C45U, for which the self-cleavage was 0.09.
With C18U G33C G44C C45G the figure was 0.02.
Under C18U G22A G35U C42A stands 0.03.
Turning to C18G G22C C31U, the self-cleavage was found to be 0.06.
With C18U G29U U38G G40A A41G U43A the figure was 0.
With C18G G21U G27A U28C the figure was 0.72; with C18U G30U U34A, 0.01; with C18U U34C G40U, 0.03.
Regarding G19A A26C G27A, the self-cleavage is 0.3.
With G19A G21U G29U the figure was 0.67; with G19A G22U G40U, 0.1.
For the variant C18U A26C G27A, the self-cleavage stood at 0.66.
Consider C18U G27U G36U C45A, for which the self-cleavage stood at 0.23.
In the case of G19A C31U U38G, the self-cleavage amounted to 0.03.
With C18G C23A G35A the figure was 0.03; with G19A C31A G44C, 0.09; with G19A G21A C23U, 0.2.
With C18G A25U U34C G40A G44C the figure was 0.03.
For C18G U20G C23A G29U C42G, the self-cleavage stood at 0.09.
Under C18U G27C U32A U38C G44U stands 0.02; under G19A A25U A41U, 0.48.
Consider C18U G19U U34A, for which the self-cleavage came to 0.02.
Under G19A C31U C37U stands 0.06.
Under C18U A26U C31U G35U C46A stands 0.02; under C18G U38A A39U, 0.07.
Under G19A G27U A39C C46A stands 0.08; under C18G G36C C42U C45G, 0.
G19A G27C G29U: the self-cleavage is 0.63.
Turning to C18G G36U C42A, the self-cleavage amounted to 0.04.
With C18U C23U C46U the figure was 1.04.
With G19A G33A G36C the figure was 0.02.
Under G19A G27U U28G U32G G36U stands 0.05; under C18U G22A A24C G36U C46G, 0.05.
In the case of C18G C42A G44A, the self-cleavage stood at 0.01.
For C18G A26G C37A, the self-cleavage worked out at 0.09.
With C18U G22C C42A C45A the figure was 0.06; with G19A A25C A41C, 0.04.
With C18U G44A C46A the figure was 0.06; with C18U A25C C37U A39C, 0.04; with G19A C37G A39G, 0.
Turning to C18G G19A U28C, the self-cleavage came to 1.04.
With G19A G29A U38C, the self-cleavage was found to be 1.65.
Under C18G G22U G30A G33C stands 2.84; under G19A G21U A39G, 0.07; under C18U G22C A25U, 2.02.
Under C18G C23U G40C stands 0.04; under C18U G30U G35C G40C A41C, 0.06.
Regarding C18U U34C A39C, the self-cleavage worked out at 0.03.
Consider C18G G22C G30A A41G, for which the self-cleavage stood at 0.02.
C18G C31U C42U: the self-cleavage is 0.03.
Turning to C18G A24C A25G G29C G33U, the self-cleavage stood at 0.02.
With C18U C23G U43C G44C C46G the figure was 0.01; with G19A C31U U38A G44A, 0.1; with C18U C23G C31U G33A, 0.02.
Under C18G G33U U38C stands 0.03.
For the variant C18U A26U G29C C46U, the self-cleavage turned out to be 0.27.
C18U G19A G21A A25U C31G A39G: the self-cleavage was 0.01.
Under C18U G19U G36C stands 0.06.
